Assay results taken from paper PMC1950564, “CD100 on NK Cells Enhance IFNγ Secretion and Killing of Target Cells Expressing CD72” (PLoS ONE, 2007).

Target: T1, human CD72 (human, UniProt P21854 1-359)
T1 sequence (looked up): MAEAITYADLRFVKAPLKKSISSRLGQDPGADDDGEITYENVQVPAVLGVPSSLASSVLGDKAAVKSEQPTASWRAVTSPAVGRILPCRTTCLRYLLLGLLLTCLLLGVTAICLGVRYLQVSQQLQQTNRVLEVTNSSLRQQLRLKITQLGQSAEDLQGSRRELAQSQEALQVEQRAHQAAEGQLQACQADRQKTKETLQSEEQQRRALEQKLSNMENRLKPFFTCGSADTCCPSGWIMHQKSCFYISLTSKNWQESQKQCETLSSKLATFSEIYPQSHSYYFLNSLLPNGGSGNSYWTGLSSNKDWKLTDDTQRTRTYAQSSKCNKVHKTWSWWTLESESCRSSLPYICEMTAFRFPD
Test: cell-based or functional assay

B1: CD100 (Semaphorin 4D) (natural protein)
chain: not shown
modifications: surface radioiodinated (125I) in the YTS immunoprecipitation
For B1, the “lysis of BW/CD72 versus parental BW cells by IL-2 activated NK cells (35S release, several E:T ratios)” value was 64 % more.
